{"source": "the RNAGym collection of RNA variant scans (doi:10.7554/elife.90254)", "parents": {"B1": {"name": "OR4K15 (parent)", "chain": "GUUAACGGUCAUAGGCCAUGGAAACUAGGAGCACCAUUUCGCUGCCAGUGAAGAAAUGAACAAAGAAAAUCUGGGCCAGGCAGGCAUCAAAAGAAAUAGUCUUGCGCUCAACCAGAAAGUCUGUAAUCAUUUUAAGGGUA"}}, "note": "Read counts are not given, so values of variants with three or more changes are uncertain."}
{"variants_of": "B1", "test": "self-cleavage, relative activity (ratio to wild type); higher = more cleavage; in vitro, sequencing; the parent is a self-cleaving ribozyme"}
{"variant": "U43C A94G A117G U122C", "self-cleavage": 1.05}
{"variant": "A23G A36U U38C A68G A111G", "self-cleavage": 0}
{"variant": "U2C A36C G41U A62G A67U C88A", "self-cleavage": 1.27}
{"variant": "U19G G31A U49C A114U A134G", "self-cleavage": 0.06}
{"variant": "A51U A66G A134G", "self-cleavage": 1.7}
{"variant": "A54G A89C A111G", "self-cleavage": 0.01}
{"variant": "A56G A63G A91G A134G", "self-cleavage": 0.73}
{"variant": "A22U U49A A52G A59G", "self-cleavage": 0.72}
{"variant": "G7A C17U A22G G44U A59G A63G A82C A86G", "self-cleavage": 0.19}
{"variant": "U38C A54G A68G A96G U103A U108A", "self-cleavage": 0.04}
{"variant": "A94G G106A U108C", "self-cleavage": 0.01}
{"variant": "A24G A78G A118G U120C", "self-cleavage": 0.11}
{"variant": "G44A A54G A66U A114U A129G", "self-cleavage": 0.02}
{"variant": "U2C A62U A129G", "self-cleavage": 1.02}
{"variant": "A27U G53A U57C U103A G119A", "self-cleavage": 0.39}
{"variant": "G14A U49C A78G U100C", "self-cleavage": 0.13}
{"variant": "A27G A82U A86G", "self-cleavage": 0.23}
{"variant": "A90G A92G A110G U127C", "self-cleavage": 0.03}
{"variant": "A23U U100C A111G A117U", "self-cleavage": 0.04}
{"variant": "U38C A82U A96G", "self-cleavage": 0.3}
{"variant": "U38C U102C U108C", "self-cleavage": 0.01}
{"variant": "A18G U102A U122C", "self-cleavage": 0.74}
{"variant": "U19C A23C A33G U49A", "self-cleavage": 0}
{"variant": "A24G A92G A96G A114G", "self-cleavage": 0.25}
{"variant": "A13G A60G G75U U97C A118G U127C", "self-cleavage": 0.05}
{"variant": "A33G A116U U133C", "self-cleavage": 0.26}
{"variant": "A22G A30U A59G A98G", "self-cleavage": 0.68}
{"variant": "A33G U70C U100C", "self-cleavage": 0.96}
{"variant": "A30G A78U A94U", "self-cleavage": 0.31}
{"variant": "A23G A54U A111G", "self-cleavage": 0.06}
{"variant": "A30G U38C A94G U108C", "self-cleavage": 0.02}
{"variant": "G1A A110G U139C", "self-cleavage": 0.36}
{"variant": "A55G A67G A135U", "self-cleavage": 1.34}
{"variant": "U43G A82G A94G U103C A117G", "self-cleavage": 2.87}
{"variant": "A23G A52U A89G", "self-cleavage": 1.2}
{"variant": "A47G A66G A96G A117G", "self-cleavage": 1.03}
{"variant": "A36C A52G A114G U122C", "self-cleavage": 0.13}
{"variant": "A24G A62G C71A U108A A126G", "self-cleavage": 0}
{"variant": "A36G U38C U132C", "self-cleavage": 0.94}
{"variant": "A52G A55U A94G A95G", "self-cleavage": 1.75}
{"variant": "A23U A95G U108C", "self-cleavage": 0.01}
{"variant": "A47G A59G A63G U102C", "self-cleavage": 2.89}
{"variant": "A5G A68G A111G G138C", "self-cleavage": 0.06}
{"variant": "U39C G74U A91C U108C", "self-cleavage": 0.01}
{"variant": "U9C A22U A69C", "self-cleavage": 2.64}
{"variant": "U9C U70C A114U", "self-cleavage": 0.09}
{"variant": "A27U A68G U127C U132C", "self-cleavage": 1.05}
{"variant": "U26C A66G A67G", "self-cleavage": 1.06}
{"variant": "A52G U97C U108C", "self-cleavage": 0.02}
{"variant": "U70C A78G U87A U122C", "self-cleavage": 0.01}
{"variant": "A24C U43C A51U A60G A126U", "self-cleavage": 1.49}
{"variant": "U43C A89G A117G U133A", "self-cleavage": 1.43}
{"variant": "G21A A22G A78C G99A", "self-cleavage": 0.17}
{"variant": "U9C U38C G74C", "self-cleavage": 0.33}
{"variant": "A89G A92G U130C", "self-cleavage": 0.59}
{"variant": "G41A A56G A68G G75A C76U A91C", "self-cleavage": 0.13}
{"variant": "C77U A91G U102C U130C", "self-cleavage": 2.3}
{"variant": "A22G A30G U139C", "self-cleavage": 0.72}
{"variant": "A33G G53U U133A", "self-cleavage": 0.97}
{"variant": "A66C A91G U102C", "self-cleavage": 2.3}
{"variant": "U37C A56G G138U", "self-cleavage": 1.25}
{"variant": "U102C U124A A126G", "self-cleavage": 0.79}
{"variant": "A51G A59G A135C", "self-cleavage": 0.97}
{"variant": "A52G U87C A96G A118G", "self-cleavage": 1.57}
{"variant": "C61U A68G A78U U120C A126U", "self-cleavage": 0.3}
{"variant": "U43C A55G U70C U87C", "self-cleavage": 0.71}
{"variant": "A5U U37C G48A A64G A68G A116C", "self-cleavage": 0.1}
{"variant": "U12C U57A A66G", "self-cleavage": 1.12}
{"variant": "A5U A18G U38C U72A U100C", "self-cleavage": 1.07}
{"variant": "A18U U43C U57C A90G U102C", "self-cleavage": 1.58}
{"variant": "U70A A117G U130C U131C", "self-cleavage": 0.41}
{"variant": "G14A A64G A69G", "self-cleavage": 0.6}
{"variant": "A52G A86U A116C U130A", "self-cleavage": 0.04}
{"variant": "U43A G79A A89U", "self-cleavage": 0.09}
{"variant": "A11G A23G A54G U102C", "self-cleavage": 1.02}
{"variant": "U49A U102C A114U", "self-cleavage": 0.07}
{"variant": "A11G A52G A63G A91U", "self-cleavage": 0.8}
{"variant": "U19C A30C A89G", "self-cleavage": 1.33}
{"variant": "U26C A66G A67G U124C", "self-cleavage": 0.36}
{"variant": "A55G A67G A96G", "self-cleavage": 2.21}
{"variant": "A27G A64G A82G C88U A110G", "self-cleavage": 0.08}
{"variant": "A23G A30G U39C A47U A63G A64G U100C U120C", "self-cleavage": 0.93}
{"variant": "U19C A47G A60G A62G A66G U130C", "self-cleavage": 0.11}
{"variant": "A30G U132C U139C", "self-cleavage": 1.73}
